The text below walks through data of article PMC4336329 (PLoS ONE, 2015).

The whole screen tested about 310,000 compounds, of which about 14,000 (4.5%) showed an effect of 50% or more. The effect is printed as a negative number. The list shows a part of the results.
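Also: peak tail current of the secondary pulse compared with the same well before compound.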

The target in the assay is human ether-à-go-go-related gene (hERG) potassium channel (human, UniProt Q12809). Put plainly: primary screen, population patch clamp on CHO cells stably expressing hERG.
Sequence of human ether-à-go-go-related gene (hERG) potassium channel (Q12809 whole entry, looked up): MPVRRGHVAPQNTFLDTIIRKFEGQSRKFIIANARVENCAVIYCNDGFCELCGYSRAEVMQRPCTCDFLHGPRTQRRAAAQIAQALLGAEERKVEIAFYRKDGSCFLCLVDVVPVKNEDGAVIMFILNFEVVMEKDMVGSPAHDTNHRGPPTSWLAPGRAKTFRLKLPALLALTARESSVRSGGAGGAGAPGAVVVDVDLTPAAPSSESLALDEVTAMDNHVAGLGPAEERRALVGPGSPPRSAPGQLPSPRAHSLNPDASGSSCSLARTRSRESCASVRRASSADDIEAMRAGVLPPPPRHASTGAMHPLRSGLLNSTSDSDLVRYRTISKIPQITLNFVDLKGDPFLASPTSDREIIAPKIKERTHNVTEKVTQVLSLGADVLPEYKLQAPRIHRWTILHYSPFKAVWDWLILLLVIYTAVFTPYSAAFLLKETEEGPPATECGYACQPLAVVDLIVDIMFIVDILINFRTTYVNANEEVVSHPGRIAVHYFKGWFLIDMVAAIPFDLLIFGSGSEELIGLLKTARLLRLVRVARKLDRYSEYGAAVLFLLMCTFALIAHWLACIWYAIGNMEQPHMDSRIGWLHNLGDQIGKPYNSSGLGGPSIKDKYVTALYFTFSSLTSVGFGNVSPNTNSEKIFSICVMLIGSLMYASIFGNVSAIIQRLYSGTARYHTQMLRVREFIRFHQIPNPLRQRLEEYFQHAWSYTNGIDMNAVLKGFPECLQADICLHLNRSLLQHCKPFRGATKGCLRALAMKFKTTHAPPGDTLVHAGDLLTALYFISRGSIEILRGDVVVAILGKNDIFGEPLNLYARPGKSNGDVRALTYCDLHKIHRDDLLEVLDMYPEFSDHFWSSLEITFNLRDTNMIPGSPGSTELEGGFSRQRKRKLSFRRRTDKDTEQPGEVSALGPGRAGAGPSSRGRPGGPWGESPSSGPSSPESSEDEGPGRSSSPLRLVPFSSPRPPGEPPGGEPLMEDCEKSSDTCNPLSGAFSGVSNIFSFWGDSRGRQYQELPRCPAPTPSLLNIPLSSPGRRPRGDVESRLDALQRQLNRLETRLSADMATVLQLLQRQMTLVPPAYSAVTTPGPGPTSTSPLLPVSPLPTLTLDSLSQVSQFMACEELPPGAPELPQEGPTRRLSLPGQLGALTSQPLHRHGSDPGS
Turning to `O=C(c1sc(N2CCOCC2)nc1-c1ccccc1)N1CCCCC1`, the “hERG current change (%, negative = inhibition) at 10uM” value turned out to be 29.9%.

Regarding `N#CCCSCc1ccc(OCC(=O)O)cc1`, the “hERG current change (%, negative = inhibition) at 10uM” value is reported as -1.48%.

Consider `COCC(=O)N1CCC(Oc2ccc(C(=O)N3CCCCCCC3)cc2)CC1`, for which the “hERG current change (%, negative = inhibition) at 10uM” value was 22.7%.

In the case of `COc1ccc(CCNC(=O)c2cc(-c3ccccc3OC)on2)cc1OC`, the “hERG current change (%, negative = inhibition) at 10uM” value was found to be 1.28%.

For the compound `O=[N+]([O-])c1cccc(-c2nnc(-c3ccccc3)o2)c1`, the “hERG current change (%, negative = inhibition) at 10uM” value stood at 10.9%.

For the compound `N#CCC(=O)N/N=C/c1c2ccccc2cc2ccccc12`, the “hERG current change (%, negative = inhibition) at 10uM” value is on record as -10.4%.

With `CC(=O)OCCOCn1cnn2c(=O)c(Br)c(C)nc12`, the “hERG current change (%, negative = inhibition) at 10uM” value is -7.03%.

`COc1ccc(NC(=O)CSc2nc3[nH]ncc3c(=O)n2-c2ccccc2C)cc1OC`: the “hERG current change (%, negative = inhibition) at 10uM” value amounted to 0.645%.

As for `CC1(Cc2cn(CCC#N)c3ccccc23)OCCO1`, the “hERG current change (%, negative = inhibition) at 10uM” value amounted to 7.64%.

As for `O=C1C2CC=CCC2C(=O)N1c1nc2n(n1)C(c1ccccc1)CC(c1ccccc1)N2` (centres unmarked), the “hERG current change (%, negative = inhibition) at 10uM” value is on record as -52.6%.

As to `COc1cc(C(=O)NCCC(=O)NC(C)C)cc(OC)c1OC`, the “hERG current change (%, negative = inhibition) at 10uM” value stood at 12.8%.

As to `CCOC(=O)COn1c(=O)c[n+]([O-])c2ccccc21`, the “hERG current change (%, negative = inhibition) at 10uM” value is given as -2.82%.

Turning to `Cc1cc(C)n(-c2ccc(C(=O)OCC(=O)Nc3ccc(Cl)cc3[N+](=O)[O-])cc2)n1`, the “hERG current change (%, negative = inhibition) at 10uM” value is on record as 16.7%.

For the compound `Cc1ccccc1NC(=O)Cc1nc(COC(=O)c2cc([N+](=O)[O-])ccc2N)cs1`, the “hERG current change (%, negative = inhibition) at 10uM” value is 6.4%.

Consider `COc1ccccc1CN1[C@@H](CC(=O)O)c2cc(F)ccc2S1(=O)=O`, for which the “hERG current change (%, negative = inhibition) at 10uM” value came to 17.2%.

On to `Cc1cc(C(=O)NCc2ccco2)on1`, for which the “hERG current change (%, negative = inhibition) at 10uM” value is 4.81%.

In the case of `O=C(CCC(=O)Nc1ccccc1Cl)NNC(=O)c1ccco1`, the “hERG current change (%, negative = inhibition) at 10uM” value amounted to 11%.

Take `O=C(Nc1nc(-c2ccccc2)cs1)C1COc2ccccc2O1` (centres unmarked): the “hERG current change (%, negative = inhibition) at 10uM” value is on record as -8.08%.

`Cc1ccc(C(=O)N2CCc3cc4c(cc3C2C)OCCCO4)cc1` (centres unmarked): the “hERG current change (%, negative = inhibition) at 10uM” value amounted to 11.5%.

In the case of `CCOC(=O)N/N=C/c1ccc(F)cc1F`, the “hERG current change (%, negative = inhibition) at 10uM” value was 8.02%.

Take `COc1cc(C(=O)NCCc2ncccc2C)ccc1OC1CCN(C(C)=O)CC1`: the “hERG current change (%, negative = inhibition) at 10uM” value was determined as 21.9%.

As to `CCOC(=O)CSc1nc(N2CCOCC2)c2c(c1C#N)CC(C)(C)N(C)C2`, the “hERG current change (%, negative = inhibition) at 10uM” value is reported as -33.4%.

For `COc1cccc(NC(=O)COC(=O)c2cc(=O)c3ccccc3o2)c1`, the “hERG current change (%, negative = inhibition) at 10uM” value was 15.4%.

Regarding `Cc1nc2ccc(Cl)cn2c1P(=S)(N1CCOCC1)N1CCOCC1`, the “hERG current change (%, negative = inhibition) at 10uM” value is listed as -4.47%.

Regarding `Cc1cc2ncn(C3CC(=O)N(Cc4ccccc4)C3=O)c2cc1C` (centres unmarked), the “hERG current change (%, negative = inhibition) at 10uM” value came out at 4.71%.

Take `Cc1ccc(C)c(NC(=O)c2ccccc2C(=O)c2ccccc2)c1`: the “hERG current change (%, negative = inhibition) at 10uM” value is on record as 17.4%.

For `C=CCn1c(O)c(C(CC)=Nc2ccccc2NC(C)=O)c(=O)[nH]c1=O`, the “hERG current change (%, negative = inhibition) at 10uM” value is listed as -0.237%.

On to `CC(=O)Cc1nsc(NC(=O)c2ccc(Br)o2)n1`, for which the “hERG current change (%, negative = inhibition) at 10uM” value stood at 5.77%.

As to `CN1CCN(CC(=O)Nc2ccc(OCc3ccccc3)cc2)CC1.Cl`, the “hERG current change (%, negative = inhibition) at 10uM” value is listed as -9.11%.

Take `COc1ccccc1N1CCN(CCCCNC(=O)c2ccc3ccccc3c2)CC1.Cl`: the “hERG current change (%, negative = inhibition) at 10uM” value is on record as -79.6%.

As to `CCC(=O)NC(C)c1cc(Cl)c2cccnc2c1O` (centres unmarked), the “hERG current change (%, negative = inhibition) at 10uM” value is on record as 10.5%.

In the case of `Cc1ccc(NC(=O)CSc2nnc(-c3ccco3)o2)c(C)c1`, the “hERG current change (%, negative = inhibition) at 10uM” value turned out to be 12.7%.

For `CC(C)NC(=O)c1ccc2c(c1)N(CC(=O)N1CCCC1)C(=O)C(C)(C)O2`, the “hERG current change (%, negative = inhibition) at 10uM” value was 0.896%.

For `O=C(Nc1cc(C(=O)N2CCN(c3ccccc3O)CC2)ccc1Cl)c1cccs1`, the “hERG current change (%, negative = inhibition) at 10uM” value is -60.1%.

With `COc1ccc(Cl)cc1NC(=O)C1CCCN(S(C)(=O)=O)C1` (centres unmarked), the “hERG current change (%, negative = inhibition) at 10uM” value is listed as 5.29%.

`CCOc1ccccc1N(CC(=O)O)S(=O)(=O)c1ccccc1`: the “hERG current change (%, negative = inhibition) at 10uM” value came out at 39.8%.

`CC(=O)C1=C(C)NC(SCC(=O)c2cc(Cl)ccc2Cl)=C(C#N)C1c1ccco1` (centres unmarked): the “hERG current change (%, negative = inhibition) at 10uM” value is given as -8.83%.

Take `CCCCCCCCNC(=O)c1cnsn1`: the “hERG current change (%, negative = inhibition) at 10uM” value is -11.9%.

For `CCCCC(=O)NNC(=S)NC(=O)C(c1ccccc1)c1ccccc1`, the “hERG current change (%, negative = inhibition) at 10uM” value came to 17.9%.

With `O=C1CC(/C=C/c2ccc([N+](=O)[O-])cc2)=Nc2ccccc2N1`, the “hERG current change (%, negative = inhibition) at 10uM” value is on record as -21.1%.

`O=c1c2c3c(sc2nc(NCCO)n1CCc1ccccc1)CCCCC3`: the “hERG current change (%, negative = inhibition) at 10uM” value came to 3.34%.

In the case of `COc1cccc(C(=O)NNC(=O)c2ccccc2-n2cccc2)c1`, the “hERG current change (%, negative = inhibition) at 10uM” value was found to be 34.4%.

Take `COc1ccc(N2C(=O)C(=O)/C(=C(/O)c3ccc(C)cc3)C2c2cccnc2)cc1` (centres unmarked): the “hERG current change (%, negative = inhibition) at 10uM” value is given as -38.5%.

In the case of `COc1ccc(C(=O)NCC(=O)N/N=C(\C)Cc2ccccc2)cc1`, the “hERG current change (%, negative = inhibition) at 10uM” value turned out to be 6.33%.
